# Results taken from PMC7819943, “Rice protein-binding microarrays: a tool to detect cis-acting elements near promoter regions in rice”.
# Some of the results follow.
# Target: T1, OsWOX13 (Oryza sativa, UniProt Q5QMM3 1-267)
# T1 sequence: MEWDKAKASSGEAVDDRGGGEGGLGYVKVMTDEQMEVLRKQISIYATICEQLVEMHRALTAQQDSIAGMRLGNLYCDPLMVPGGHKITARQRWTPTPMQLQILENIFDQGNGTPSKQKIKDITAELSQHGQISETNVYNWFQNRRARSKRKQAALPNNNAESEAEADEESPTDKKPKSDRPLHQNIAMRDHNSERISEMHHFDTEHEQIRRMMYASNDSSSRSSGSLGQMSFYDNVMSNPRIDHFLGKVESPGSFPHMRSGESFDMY
# Experiment: protein-binding microarray (RPBM); PBS, 2% BSA, 51.3 ng/ul salmon testes DNA, 50 uM zinc acetate, 200 nM TF, 25 C, 1 h; high values mean tight binding
# Settings: protein: recombinant; tags: N-terminal polyhistidine and DsRed monomer fusion (pET32a); label: CyDye5-dUTP incorporated in the synthesized complementary strand; 3' TTTTT single-stranded linker to array surface; dsDNA, one strand shown
# In short: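 The binding signal is fluorescence intensity per array feature (arbitrary units). Readings came from an Axon 4000B scanner after a washed, 2% BSA-blocked, double-stranded custom Agilent array had been incubated for 1 h at 25 °C with 200 nM protein and 50 µM zinc acetate. The protein was a Ni–NTA-purified transcription factor fused N-terminally to polyhistidine and DsRed, expressed in E. coli BL21-CodonPlus.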
row,Sequence,binding signal
1,TAGTAACTAATTAGATTACGAGACATACACAAGGTTAACACGGAGTCACCTAGTGCAG,24000 fluorescence intensity (a.u.)
2,TCTTTGATTACACCACAAGAGACACTCAACAAAGAAAAGTCGGAGTCACCTAGTGCAG,4380 fluorescence intensity (a.u.)
3,TTCAAATTGGATCCATGCCACTGCAGCCAATTCAGAAGCACGGAGTCACCTAGTGCAG,7110 fluorescence intensity (a.u.)
4,AAATTAACTCCAAATTTAAAGTTAGAAATTTAAATTTTGGCGGAGTCACCTAGTGCAG,11400 fluorescence intensity (a.u.)
5,TTACAATTTAATTAAAATATATGTTGTATAATTATATTACCGGAGTCACCTAGTGCAG,10600 fluorescence intensity (a.u.)
6,ACGTGCCTTGTGATTATCTTTTCTCGTACTGCGTCGTTGGCGGAGTCACCTAGTGCAG,3250 fluorescence intensity (a.u.)
7,GCGATGAATCTAATCAAGATTTCCTGGAACCCTCATGTATCGGAGTCACCTAGTGCAG,3950 fluorescence intensity (a.u.)
8,TCTGAATGGACACGTTTTACAATCACATCACATAGAGTAACGGAGTCACCTAGTGCAG,3420 fluorescence intensity (a.u.)
9,ATTTGACACAAACTAACGGTTGGTTGAATTATTAGCACGCCGGAGTCACCTAGTGCAG,5760 fluorescence intensity (a.u.)
10,CTAAATATACGCTAAACTGTTGTTTCGTTTTGCGTGCAATCGGAGTCACCTAGTGCAG,3580 fluorescence intensity (a.u.)
11,ACTGATGAACTGATCCTCTCATTCAACGAAACCTGTGCAACGGAGTCACCTAGTGCAG,6630 fluorescence intensity (a.u.)
12,ACTAAACTTTTAATTTTGACGTGAACTAAACACACGCTTTCGGAGTCACCTAGTGCAG,9450 fluorescence intensity (a.u.)
13,CTGAATTGAGTGGAACAAGCCCGTGTACAGTACTTTGCTTCGGAGTCACCTAGTGCAG,8670 fluorescence intensity (a.u.)
14,ATATGTCTAGATTCATTAACATCAATTTTAATGTGGGAAACGGAGTCACCTAGTGCAG,3490 fluorescence intensity (a.u.)
15,ACAAAACCATTTGTGATTTTCTTTGAGTGCCCAGTTTTGTCGGAGTCACCTAGTGCAG,3210 fluorescence intensity (a.u.)
16,GCTGATGAAATATCAGATGCCCTTGTCAGTGTTCAAAGAGCGGAGTCACCTAGTGCAG,5130 fluorescence intensity (a.u.)
17,CGTAATTATTCTATTCTAGCCGTCTTCGTGTCTATTATATCGGAGTCACCTAGTGCAG,26500 fluorescence intensity (a.u.)
18,TTGATTTGTCAACCATACATTTGTTGTTTGGCTTTTGTGACGGAGTCACCTAGTGCAG,3830 fluorescence intensity (a.u.)
19,CATCAATCACCAAGGCCCTTTAAGACCAGTACCTAACCCCCGGAGTCACCTAGTGCAG,20500 fluorescence intensity (a.u.)
20,ATAAACATTCTTAATTGTCTCGAGTCCAATCACACGATGGCGGAGTCACCTAGTGCAG,19400 fluorescence intensity (a.u.)
21,GTGCAGGTAATTGACAGATCATTTGGTTTCGACACTGCAGCGGAGTCACCTAGTGCAG,14100 fluorescence intensity (a.u.)

row,Sequence,binding signal
1,TGTAATTATTCCCTCAGGTATCAATCAATTCAGTTAACTTCGGAGTCACCTAGTGCAG,17300 fluorescence intensity (a.u.)
2,CTCCTTGTTTAATTTGCACATTGTCGTCTTGCGATTACGGCGGAGTCACCTAGTGCAG,5570 fluorescence intensity (a.u.)
3,ATATAATTAGACTAAGCAATGCTTTAAGATGTGAAAGGAGCGGAGTCACCTAGTGCAG,20600 fluorescence intensity (a.u.)
4,CATATGCTAATTACTCCATCCATTTTATATTATATATCATCGGAGTCACCTAGTGCAG,3600 fluorescence intensity (a.u.)
5,AAATTGTTTAATTGTTTATGGTATTGTAGTAGCATGTCATCGGAGTCACCTAGTGCAG,10600 fluorescence intensity (a.u.)
6,TATAATTTGTATAGTTACTTGCAATTCTCATCAAATACAGCGGAGTCACCTAGTGCAG,15600 fluorescence intensity (a.u.)
7,TCAGATTATTCATCAGATTATTAAAACATATTATTTGCTCCGGAGTCACCTAGTGCAG,6140 fluorescence intensity (a.u.)
8,GCCCAGTCCAATCTATCATCAGATTCCTTTTATACAATATCGGAGTCACCTAGTGCAG,6230 fluorescence intensity (a.u.)
9,TTATTAATAAACTAGATAGTTGTTAACCCGCGTTTTGAGTCGGAGTCACCTAGTGCAG,3530 fluorescence intensity (a.u.)
10,TTTGTTTAATTATGCATGATTAGATAGCATATAGTTATTACGGAGTCACCTAGTGCAG,22500 fluorescence intensity (a.u.)
11,CAATGGAAATCAACTAATCATACTGTTCATAAACAGCTTTCGGAGTCACCTAGTGCAG,3720 fluorescence intensity (a.u.)
12,GGGGTCAATCATGCATAACCAGAAAGTGATGCTACTGGCTCGGAGTCACCTAGTGCAG,23200 fluorescence intensity (a.u.)
13,AGGGGTTGTAATTGGTTTAGAGGTGGAGGTAGATAAGAAACGGAGTCACCTAGTGCAG,11300 fluorescence intensity (a.u.)
14,TGTGACTGATAGCAAGAACATATGGCTGCTTGACAAATAACGGAGTCACCTAGTGCAG,8880 fluorescence intensity (a.u.)
15,GATTGCAATTGATGATTATGTCCGTTATCAATTCCTACTCCGGAGTCACCTAGTGCAG,15000 fluorescence intensity (a.u.)
16,CAAACTAGAATAATATAAATGATTGATTTTGAGCATATCCCGGAGTCACCTAGTGCAG,16400 fluorescence intensity (a.u.)
17,TTTATGTGATTGTCATTTATTTTACTGTGACTTGATTCATCGGAGTCACCTAGTGCAG,29000 fluorescence intensity (a.u.)
18,ATTGAAATTATGTCGGCCTGTCAGAGGCTCTTTCATCGCTCGGAGTCACCTAGTGCAG,3780 fluorescence intensity (a.u.)
19,TACAATCACATTCAATTTGAAAAGAGAAGATGGCTCTTGGCGGAGTCACCTAGTGCAG,9800 fluorescence intensity (a.u.)
20,ACAAAATCACTGTAAAATCATTTCTAAAATCACTTTATATCGGAGTCACCTAGTGCAG,3250 fluorescence intensity (a.u.)
21,TAATTAATTAACAAAGAACTATATAATCGAAGACCAAATCCGGAGTCACCTAGTGCAG,8580 fluorescence intensity (a.u.)
